Experimental findings from patent publication US12583836B2 (Anaxis Pharma Pty Ltd, priority 2020, dated 2026) are described below.

Each structure is given as a SMILES string.

In one assay the target is T1, RIP1 (Homo sapiens, UniProt Q13546).
T1 construct: purchased DiscoverX (KINOMEscan service); host or cells: E. coli BL21-derived (T7 phage) or HEK293
T1 sequence (Q13546 1-671): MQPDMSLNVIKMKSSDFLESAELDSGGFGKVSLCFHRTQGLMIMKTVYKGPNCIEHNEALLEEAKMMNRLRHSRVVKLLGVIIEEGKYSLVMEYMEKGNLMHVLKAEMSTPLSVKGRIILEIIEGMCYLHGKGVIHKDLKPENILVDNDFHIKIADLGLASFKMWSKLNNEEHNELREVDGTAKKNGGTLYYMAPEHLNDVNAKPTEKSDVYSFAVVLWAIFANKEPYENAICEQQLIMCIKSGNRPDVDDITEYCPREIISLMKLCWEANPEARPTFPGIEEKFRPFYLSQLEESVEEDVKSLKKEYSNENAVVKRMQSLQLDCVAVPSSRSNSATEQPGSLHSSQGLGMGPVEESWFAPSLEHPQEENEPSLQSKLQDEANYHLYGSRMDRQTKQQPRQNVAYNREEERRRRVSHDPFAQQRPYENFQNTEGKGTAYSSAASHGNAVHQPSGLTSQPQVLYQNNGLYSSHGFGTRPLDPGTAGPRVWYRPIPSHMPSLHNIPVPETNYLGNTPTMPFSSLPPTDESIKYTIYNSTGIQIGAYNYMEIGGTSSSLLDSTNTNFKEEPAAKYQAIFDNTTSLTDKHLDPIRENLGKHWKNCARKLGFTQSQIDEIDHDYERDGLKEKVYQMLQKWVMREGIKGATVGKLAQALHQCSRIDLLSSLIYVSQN
Briefly: KINOMEscan binding assay, RIP1. The conditions noted are these: equilibrium dissociation constant, class symbols.

The target of the next assay is T2, MLKL (full length) (Homo sapiens, UniProt Q8NB16).
T2 construct: purchased DiscoverX (KINOMEscan service); host or cells: E. coli BL21-derived (T7 phage) or HEK293
T2 sequence (Q8NB16 1-471): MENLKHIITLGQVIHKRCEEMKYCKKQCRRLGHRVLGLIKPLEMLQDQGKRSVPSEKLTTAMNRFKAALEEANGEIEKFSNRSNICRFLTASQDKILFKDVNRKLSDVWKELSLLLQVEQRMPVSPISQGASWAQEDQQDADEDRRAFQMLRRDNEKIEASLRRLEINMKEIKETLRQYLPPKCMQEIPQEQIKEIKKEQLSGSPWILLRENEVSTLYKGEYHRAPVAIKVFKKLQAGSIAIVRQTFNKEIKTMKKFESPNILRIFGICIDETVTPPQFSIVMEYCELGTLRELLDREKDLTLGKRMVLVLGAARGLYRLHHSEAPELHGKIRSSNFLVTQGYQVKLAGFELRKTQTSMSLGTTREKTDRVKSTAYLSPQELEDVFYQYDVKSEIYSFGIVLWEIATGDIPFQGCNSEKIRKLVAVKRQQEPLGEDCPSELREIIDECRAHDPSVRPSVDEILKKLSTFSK
The assay is described as follows: KINOMEscan binding assay, MLKL. The settings on record: equilibrium dissociation constant, class symbols. The source says:
The Hill Slope was set to −1.

For the compound `C[C@H](Oc1cc(-c2n[nH]c(Nc3cc(C(C)(C)F)on3)c2C(N)=O)ccc1NS(=O)(=O)C(F)F)c1ccc(F)cc1` [Compound 297], the figures for the Kd on RIP1 and at MLKL (full length) were more than 30 µM and less than 0.01 µM, respectively.
